Assay results published in PubChem BioAssay AID1347165 (National Center for Advancing Translational Sciences (NCATS), 2019).
Where “and” joins values, the source holds several entries; their conditions need not be identical. Equal entries are not always repeated. In all, about 220,000 compounds went through this assay and about 5,700 (2.6%) were called active. Inconclusive means that the source gave no clear call. Such entries were picked first, then a sample of the others. The call rests on the fitted dose curve; in most records, active means well fitted inhibition curve with a large enough effect; inconclusive means small, poorly fitted or top-dose-only effect; inactive means no such curve, though single readings can be large or run the other way. Potencies beside an inconclusive call are fits to weak or partial responses and may not hold up.
Further: nearly all actives have a fitted effect of over 70% in size.
Potency means the concentration at half of the fitted maximal effect; tags describe the fitted curve by direction and shape.
Wherever activity change, negative = inhibition is given: 0% is about no effect.

Each molecule was assayed against Lysine-specific demethylase 5B (Homo sapiens) (UniProt Q9UGL1) (assay: Primary screen for KDM5B Histone Demethylases FDH-coupled qHTS). Details: FDH-coupled NADH fluorescence (FDH is formaldehyde dehydrogenase); activity change, negative = inhibition: at 57.7 µM (top of the series) unless noted.
UniProt Q9UGL1, sequence (Q9UGL1 whole entry, looked up): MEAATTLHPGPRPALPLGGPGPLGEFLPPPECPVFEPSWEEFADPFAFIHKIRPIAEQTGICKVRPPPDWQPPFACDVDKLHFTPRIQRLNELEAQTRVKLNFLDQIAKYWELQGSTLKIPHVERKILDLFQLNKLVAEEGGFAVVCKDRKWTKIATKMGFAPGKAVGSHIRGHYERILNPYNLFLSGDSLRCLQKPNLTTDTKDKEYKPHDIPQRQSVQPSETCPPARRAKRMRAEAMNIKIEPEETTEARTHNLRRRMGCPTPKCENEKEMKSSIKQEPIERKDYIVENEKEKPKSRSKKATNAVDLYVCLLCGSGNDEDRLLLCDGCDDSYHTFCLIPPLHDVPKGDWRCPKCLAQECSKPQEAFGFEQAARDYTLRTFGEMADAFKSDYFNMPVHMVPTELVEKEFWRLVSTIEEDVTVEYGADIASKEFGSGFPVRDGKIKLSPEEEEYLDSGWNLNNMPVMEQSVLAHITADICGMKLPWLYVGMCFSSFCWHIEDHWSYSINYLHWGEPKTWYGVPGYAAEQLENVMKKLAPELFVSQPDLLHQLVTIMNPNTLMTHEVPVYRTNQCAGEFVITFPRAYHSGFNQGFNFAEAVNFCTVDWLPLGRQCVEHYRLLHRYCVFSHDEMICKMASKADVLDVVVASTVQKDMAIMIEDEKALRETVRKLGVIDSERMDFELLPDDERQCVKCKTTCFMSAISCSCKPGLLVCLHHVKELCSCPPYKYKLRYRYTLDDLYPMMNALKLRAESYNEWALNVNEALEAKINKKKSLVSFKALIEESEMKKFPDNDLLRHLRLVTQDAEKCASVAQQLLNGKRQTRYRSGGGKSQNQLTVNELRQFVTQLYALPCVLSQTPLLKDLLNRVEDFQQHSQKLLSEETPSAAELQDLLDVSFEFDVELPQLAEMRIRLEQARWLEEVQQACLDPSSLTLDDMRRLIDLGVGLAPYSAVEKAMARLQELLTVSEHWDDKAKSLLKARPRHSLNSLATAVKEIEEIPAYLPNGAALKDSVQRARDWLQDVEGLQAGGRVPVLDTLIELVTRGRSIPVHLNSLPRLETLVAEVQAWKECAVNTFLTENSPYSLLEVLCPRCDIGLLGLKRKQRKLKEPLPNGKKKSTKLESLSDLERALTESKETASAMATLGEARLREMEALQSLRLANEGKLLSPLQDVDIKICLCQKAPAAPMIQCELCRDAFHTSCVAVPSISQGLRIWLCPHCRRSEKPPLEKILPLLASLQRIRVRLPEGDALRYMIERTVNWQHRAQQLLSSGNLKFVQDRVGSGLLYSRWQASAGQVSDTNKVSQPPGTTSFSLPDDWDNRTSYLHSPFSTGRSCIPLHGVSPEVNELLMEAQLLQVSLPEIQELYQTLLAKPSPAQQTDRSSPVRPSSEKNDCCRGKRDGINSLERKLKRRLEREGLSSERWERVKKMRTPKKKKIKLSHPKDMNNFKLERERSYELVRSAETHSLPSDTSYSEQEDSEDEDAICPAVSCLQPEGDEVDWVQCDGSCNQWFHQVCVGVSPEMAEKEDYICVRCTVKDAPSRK
Procedure, shortened: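 Measured: NADH fluorescence change, 30 min, RT. System: KDM5BΔAP 200 nM final, H3K4me3 peptide, α-KG, Fe(II), ascorbate, NAD⁺ plus FDH, pH 7.5 HEPES. Compounds: titrated, 10 min pre-incubation with enzyme.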
With `COc1ccc(C(O)c2cc3c(cc2NC(=O)c2ccc(Cl)cc2)OCCO3)cc1` (configuration not stated) the “activity change, negative = inhibition” value was inactive: -2.69%. With `CCCn1c(=O)[nH]c(=O)c2c3c(cnc21)C(=O)CC(c1ccccc1)C3` (configuration not stated) the “activity change, negative = inhibition” value was inactive: 6.58%. For `Cc1nn(-c2ccccc2)c(Oc2ccccc2F)c1CCC(=O)N1CCSCC1`, the “activity change, negative = inhibition” value was inactive: 13.3%. For `NC(=O)C1CCN(Cc2ccc(C(F)(F)F)cc2)CC1`, the Potency was inconclusive: 39.8 µM [inhibitor, single point]. `COc1cc(C)c(Cl)cc1S(=O)(=O)N1CCC(C(N)=O)CC1` was tested, and the “activity change, negative = inhibition” value was inactive: 11.5%. With `CC1=C[C@@H](CNS(=O)(=O)Cc2ccccc2)[C@H](C(C)C)C[C@H]1CC(=O)NCc1ccccn1` the Potency was inconclusive: 15.8 µM [inhibitor, partial curve, poor fit]. For `Cc1ccc([S+](=O)([O-])N2CCC3(C2)C(=O)N(CCc2ccccc2)c2ccccc23)cc1` (configuration not stated), the Potency was “inactive”. `CCOC(=O)c1c(C)[nH]c(C(=O)COc2ccc3ccc(=O)oc3c2)c1C` was tested, and the Potency was inconclusive: 25.1 µM [inhibitor, single point] and inconclusive: 25.1 µM [inhibitor, partial curve, poor fit]. With `O=C(Cn1c(=O)c2cccn2c2cccnc21)NCc1ccccc1F` the Potency was inconclusive: 35.5 µM [inhibitor, single point]. `CC1(CCCCc2ccccc2)COc2ccc(C(=O)N3CC[S+](=O)([O-])CC3)cc2N1` (configuration not stated) was tested, and the Potency was inconclusive: 39.8 µM [inhibitor, partial curve, poor fit]. `Cc1ccc2nc3c(c(Nc4ccc(O)cc4)c2c1)CCC3` was tested, and the Potency was inconclusive: 39.8 µM [inhibitor, single point]. In the case of `O=C(Cc1ccccc1Cl)N[C@@H]1CN(c2ncccn2)C[C@H]1CO`, the Potency was inconclusive: 25.1 µM [inhibitor, single point]. With `COCCn1c(SCC(=O)O)nc2c1c(=O)[nH]c(=O)n2C` the “activity change, negative = inhibition” value was inactive: -3.74%. In the case of `CCSc1n[nH]c2nc3c(c(=O)n12)C(C)(CC)Cc1ccccc1-3` (configuration not stated), the Potency was inconclusive: 10 µM [inhibitor, partial curve, poor fit]. For `CC1(C)CCc2c(ccc3ccc(=O)oc23)O1`, the Potency was inconclusive: 25.1 µM [inhibitor, partial curve, poor fit]. For `Cc1nc2sc3c(c2c2nc(C(=O)NCC(C)C)nn12)CC(C)(C)OC3`, the Potency was inconclusive: 28.2 µM [inhibitor, partial curve, poor fit]. For `COCCCNC(=S)N/N=C/c1cccc(OC)c1O`, the Potency was inconclusive: 35.5 µM [inhibitor, single point]. With `Cc1ccc2[nH]c(=O)c3cc(C(=O)NCCc4ccc(Cl)cc4)sc3c2c1` the Potency was inconclusive: 15.8 µM [inhibitor, partial curve, poor fit]. With `Clc1ccc(Oc2cc(Cl)c(Cl)cc2Cl)cc1` the “activity change, negative = inhibition” value was inactive: -10.7%. For `CCCn1c(=O)[nH]c(=O)c2c1nc(-c1cccc(C)c1)n2CCN1CCOCC1`, the Potency was inconclusive: 39.8 µM [inhibitor, partial curve, poor fit]. In the case of `CCN(CC)CC[C@H]1CN(C(=O)C2CCC2)CC[C@H]1CC(=O)O`, the “activity change, negative = inhibition” value was inactive: -12.6% [at 86.2 µM]. With `CN1CC(=O)N(c2ccccc2F)Cc2c(NCCc3ccccc3)ncnc21` the Potency was inconclusive: 14.1 µM [inhibitor, partial curve, poor fit]. For `O=C(Cn1ccn2nc3c(c2c1=O)CCCC3)NCc1ccccc1`, the Potency was active: 25.1 µM. For `CC(CCc1ccccc1)NC(=O)NCc1ccncc1` (configuration not stated), the “activity change, negative = inhibition” value was inactive: -13.6%. `CC(C)CNC(=O)c1cc2n(n1)CC(c1ccc3c(c1)OCO3)OC2` (configuration not stated) was tested, and the Potency was inconclusive: 31.6 µM [inhibitor, single point]. In the case of `COC(=O)CC(NC(=O)Nc1cccn2nc(C)nc12)c1ccccc1` (configuration not stated), the “activity change, negative = inhibition” value was inactive: 9.09%. In the case of `O=C(O)CCNS(=O)(=O)c1ccc(Cl)c(C(F)(F)F)c1`, the “activity change, negative = inhibition” value was inactive: 18.1%. With `CCn1c2ccccc2c2cc(CN3CCN(Cc4ccccc4C)CC3)ccc21` the Potency was inconclusive: 31.6 µM [inhibitor, partial curve, poor fit]. With `COc1ccccc1C(=O)Nc1ccc(OCc2cc(=O)n3cc(C)sc3n2)cc1` the Potency was inconclusive: 3.98 µM [inhibitor, partial curve, poor fit]. For `CS(=O)(=O)c1ccc(CN2CCC3(CCNCC3)C2)cc1`, the Potency was inconclusive: 1.58 µM [inhibitor, full curve, poor fit]. In the case of `COc1cccc(N2CCN(C(=O)c3cc4c(s3)CN(C3CCCC3)C4)CC2)c1`, the Potency was inconclusive: 12.6 µM [inhibitor, single point]. In the case of `COc1ccc(C)cc1NC(=O)c1ccc2c(c1)nnn2C1CCCC1`, the Potency was inconclusive: 35.5 µM [inhibitor, single point]. `CC(C)(CNC(=O)Cc1ccc(Br)cc1)N1CCOCC1` was tested, and the Potency was inconclusive: 20 µM [inhibitor, partial curve, poor fit]. In the case of `O=C(NCCc1ccc(F)cc1)C1CCCC1`, the “activity change, negative = inhibition” value was inactive: 14.8%. In the case of `O=C(CCc1cc(Cl)no1)N1CCc2c(nc3cc(-c4ccccc4)[nH]n3c2=O)C1`, the Potency was inconclusive: 28.2 µM [inhibitor, partial curve, poor fit]. For `Cc1ccc(-c2cc3c(=O)n(CCNC(=O)c4ccc(C)s4)ccn3n2)c(C)c1`, the Potency was inconclusive: 39.8 µM [inhibitor, single point]. With `Oc1ccc(-c2nc(C3CC3)nc3c2CCN(Cc2ccccc2)CC3)cc1` the Potency was inconclusive: 25.1 µM [inhibitor, partial curve, poor fit]. For `Cn1c(CCNC(=O)c2ccccc2F)nnc1SCC(=O)N1CCc2ccccc21`, the “activity change, negative = inhibition” value was inactive: -5.52%. For `CN(Cc1ccccc1)C(=O)C[C@@H]1CCNC[C@@H]1Cc1cc(COc2ccccc2)on1`, the “activity change, negative = inhibition” value was inactive: -0.396% [at 86.2 µM]. With `COCCN(CCOC)c1ncnc2c1c(-c1ccccc1)cn2-c1ccc(C)c(Cl)c1` the Potency was inconclusive: 31.6 µM [inhibitor, partial curve, poor fit]. For `CC(C)Oc1ccc2c(-c3ccccc3)cc(=O)oc2c1`, the Potency was inconclusive: 35.5 µM [inhibitor, single point]. For `Cc1nn(Cc2ccccc2)c(C)c1[C@@H]1C=C[C@@H](NC(=O)CSCC(=O)O)C1`, the Potency was inconclusive: 31.6 µM [inhibitor, single point].
